Measured values published in article PMC12136788.
Some of the results follow.

T1: UNK ZnF1-3 (human, UniProt Q9C0B0 31-174)
T1 sequence: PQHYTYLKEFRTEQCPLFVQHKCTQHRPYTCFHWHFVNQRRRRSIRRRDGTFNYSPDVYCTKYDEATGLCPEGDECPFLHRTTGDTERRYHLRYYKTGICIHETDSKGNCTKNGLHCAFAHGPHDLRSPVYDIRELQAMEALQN

B1: chr2:27806210:27806211:+_ENSMUSG00000026837_ENSMUST00000028280|mus_hu|motif|central (ssRNA)
RNA: GGGAGUUCUACAGUCCGACGAUCUGUGGUUUCUUUGGCAGCUUCCACGGGCUUCUUGCUGGGGGUGGGCUCCUUCCCGGGGUCUUCGGGGUCUUCGUAGUAGGGGUAUUCGUAGUAAUAGGUCUCACCCUCGCCGUCUCCUUCCAACAGAGGAUUGAGCAUCA
B2: chr17:60770872:60770873:+_ENSG00000011028_ENST00000303375|hu_hu|hu_hu_hu_mus_True|68_98 (ssRNA)
RNA: GGGAGUUCUACAGUCCGACGAUCUCUUUAAAAAAAAUUCCUUUUUUACAAACAAUAAUAGCACAUUAUUUAAAAAAAGAACUACAAUAGAGGGUCCGCUUUGAGUUUUUGUUCACAUCGUCCUGCACUGGGACACGGGGACUGCAACAGAGGAUUGAGCAUCA
B3: chr4:107908409:107908410:-_ENSMUSG00000034636_ENSMUST00000043616|mus_hu|motif|central (ssRNA)
RNA: GGGAGUUCUACAGUCCGACGAUCACUGUAGAAUCUCAAGCACAAGUAAGUUCAAACACUGAAAGAUGUGGAAAAUUUCCGGAAAGGCAAUGAUAAAGGAAGAGACCCUUCUUGACUCAUAAGUUUAAAAUCACAAGACAAAUUCAACAGAGGAUUGAGCAUCA
B4: chrX:71549762:71549763:+_ENSMUSG00000019087_ENSMUST00000019231|mus_mus|mus_mus_mus_hu_False|58_78 (ssRNA)
RNA: GGGAGUUCUACAGUCCGACGAUCAAACCCGUGUACUUCUUAUUGUUAGCACAACAUUCCCCCCCAACGAUAACGACAGCUAAGCUGGACAGACAGUUAAGUAGUACUUCCACACUCCCAAACUCAGGGAGCCCUAUAACCUUACAACAGAGGAUUGAGCAUCA
B5: chr7:128503047:128503048:+_ENSG00000128524_ENST00000249289|hu_mus|motif|central (ssRNA)
RNA: GGGAGUUCUACAGUCCGACGAUCGGUGGUAUCCUUCUCCACUACCAGGAAAUUAGGGUGGCGGUUCUUGUUUAGCUCCCCGGUGCCGCCCAACAGGAAACCAGUCACCGUGUCCUCGUCUCCAAUCACCGCGAUUAGCUUACCCAACAGAGGAUUGAGCAUCA
B6: chr7:140404665:140404666:+_ENSG00000090266_ENST00000247866|hu_hu|hu_hu_hu_mus_False|98_108 (ssRNA)
RNA: GGGAGUUCUACAGUCCGACGAUCUGCGUACAGAGUGAGGCUGAGUCUACAGUGUCAGUCCUCGUCAUCAGGAGGGAUUCCCAGUUCUUCAUCUGUCCACUGUGAAGGAUCUGGAUAUGAAAAGUGACCCAGCACAGCAUCCGACAACAGAGGAUUGAGCAUCA
B7: chr11:58768410:58768411:+_ENSMUSG00000078851_ENSMUST00000108817|mus_mus|motif|central (ssRNA)
RNA: GGGAGUUCUACAGUCCGACGAUCCUUCUUAUUGUCGCGGGCCGCAUUACCAGCCAAUUCCAGGAUCUCAGCAGUCAGAUAUUCGGGCACAGCCGCCAGGUACACCGGGGCACCAGCGCCGACCCGCUCCGAAUAAUUACCCUUCAACAGAGGAUUGAGCAUCA
B8: chr11:29608318:29608319:+_ENSMUSG00000020458_ENSMUST00000102843|mus_mus|FALSE|FALSE (ssRNA)
RNA: GGGAGUUCUACAGUCCGACGAUCUAUCUCAAUGGGAGAUGAAUCGGAAAAUGUUUCACUUUCUUUCAUUUUGUCUUCCUUAGAAGAAAGUAAGUCAUCAUUGGAAUAAAUUGCAGUAUUAAACUCUUCCAUUUGCAAAGAAAUCAACAGAGGAUUGAGCAUCA
B9: chr2:85280848:85280849:+_ENSG00000176407_ENST00000409785|hu_mus|FALSE|FALSE (ssRNA)
RNA: GGGAGUUCUACAGUCCGACGAUCUCAUGCAGUAGUUAGGUAAACCAUCCAAGCAGUUUUUAUUCAUUAAUAUUCAUAAAUACACACAGCAGCUUCAUUAGAGAUUUCAAUUUUCCUCUUCAGUUUGAAUGUGGAGUAUUAGGACAACAGAGGAUUGAGCAUCA
B10: 60031836_60038361_1643_CDS_ENSMUSG00000041040_ENSMUST00000036540|mouse|control|control (ssRNA)
RNA: GGGAGUUCUACAGUCCGACGAUCUGGUUUGAGGAUACUCACGAGGCAGAAAGCAGAGCCACUUUUAGGAAUGAAAUUCACCUUGUUUUUGUCAGGACAGUAAAAGGCUGGAAUCUCAUGAAGUUGUUUUGGCGAGCAUUCCUCCAACAGAGGAUUGAGCAUCA
B11: 138044843_138045211_1185_CDS_ENSMUSG00000041642_ENSMUST00000075164|mouse|control|control (ssRNA)
RNA: GGGAGUUCUACAGUCCGACGAUCCAAGGCCAGCAGACCACAGUUGAUGGAGAUGCCCUCUUUGGCCCGUUCGCCGGUGGCCCCUGUCCGCUUCAGCCGCUCUGAGCCAGCCAAGUCCACGAAGUGAAACUUAGCAGUGAGAGUCAACAGAGGAUUGAGCAUCA
B12: 222898803_222900535_952_CDS_ENSG00000162819_ENST00000340934|human|control|control (ssRNA)
RNA: GGGAGUUCUACAGUCCGACGAUCUAGUUCAAUUGCUCGAGCAAUUGUUACUUCUUGAGCUUCAGCCUGACAUUGAAUAACGUAUGCUUCUAUGAGUCGUGACUCUAAAUCUCUUCCUUUUUCCGCAGGUGUAAUGAGUUUUGGCAACAGAGGAUUGAGCAUCA
B13: 89180194_89198816_634_3pUTR_ENSG00000156103_ENST00000286614|human|control|control (ssRNA)
RNA: GGGAGUUCUACAGUCCGACGAUCUCUUUAUACUGUAAGUGAUGUGCUUGUGCUGCCAUUUCUGUCCUGUCAAUGCAUAUCGCUUUCGACGAAUAUGAAAUUUGGAGCUACCUCUUGUCUGGUCAGGUACACCGCAUCGGGGCUCAACAGAGGAUUGAGCAUCA
B14: 12974608_12974966_472_CDS_ENSG00000213782_ENST00000358007|human|control|control (ssRNA)
RNA: GGGAGUUCUACAGUCCGACGAUCGUAUUUGAGAGCUCUCAAGUUGAAACCUUUCGUAUUUUCCAAGUGGUCAAUCAGUCGACCAGGAGUUGCUAUUAUUAUAUGUGGUUUUUUUGCAAGGGCCAAAGAUUGAGACAUUGAAUCCAACAGAGGAUUGAGCAUCA

The binders below were run against T1, UNK ZnF1-3 (assay: nsRBNS (natural sequence RNA bind-n-seq); RBNS binding buffer (assumed for nsRBNS): 25 mM Tris pH 7.5, 150 mM KCl, 3 mM MgCl2, 0.01% Triton X-100, 500 ug/ml BSA, 20 U/ml SUPERase-In, 4 C; UNK is unkempt and MSI1 is Musashi-1; names of the RNAs are library labels; protein concentration not given here; high values mean tight binding).

Binder	binding signal
B1	0.622 enrichment R
B2	1.25 enrichment R
B3	1.21 enrichment R
B4	1.26 enrichment R
B5	0.526 enrichment R
B6	0.883 enrichment R
B7	1.1 enrichment R
B8	0.653 enrichment R
B9	1.29 enrichment R
B10	1.43 enrichment R
B11	0.73 enrichment R
B12	0.681 enrichment R
B13	0.412 enrichment R
B14	1.1 enrichment R
